# Data from PubChem BioAssay AID485344 (National Center for Advancing Translational Sciences (NCATS), 2010).
# Hit rate of the full screen: of about 340,000 compounds, about 6,900 (2%) were called active. Cut-off read from the data, not from the text of the source: active = inhibition above about 30%; inactive = below that, where a call was filed. The entries are a selection whose mix differs from that of the whole data set. Entries without a call were filed so in the source.
# Biological target: D(2) dopamine receptor (Homo sapiens) (UniProt P14416)
# UniProt P14416, sequence (P14416 whole entry, looked up): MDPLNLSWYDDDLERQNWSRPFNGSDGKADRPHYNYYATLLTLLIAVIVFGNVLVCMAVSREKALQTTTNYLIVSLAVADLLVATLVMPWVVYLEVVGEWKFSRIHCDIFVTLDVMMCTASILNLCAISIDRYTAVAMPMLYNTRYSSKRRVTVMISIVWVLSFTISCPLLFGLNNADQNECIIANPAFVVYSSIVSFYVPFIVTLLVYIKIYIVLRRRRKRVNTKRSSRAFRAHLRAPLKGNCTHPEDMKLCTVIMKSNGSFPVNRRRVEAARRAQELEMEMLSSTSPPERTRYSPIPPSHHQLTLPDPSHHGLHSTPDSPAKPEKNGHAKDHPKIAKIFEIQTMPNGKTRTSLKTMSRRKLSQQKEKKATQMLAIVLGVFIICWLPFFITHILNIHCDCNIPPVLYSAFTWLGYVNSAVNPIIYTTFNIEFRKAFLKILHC
# Assay: HTS Assay for Allosteric Antagonists of the Human D2 Dopamine Receptor: Primary Screen for Antagonists; note: 0% is about no effect
# Conditions: HEK293 TREx D2 cells, calcium flux, dopamine EC80; at 10 µM; stronger effect = higher value
# How it was run: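 In this primary screen, negative modulation is detected by tracking calcium flux after an EC80 dopamine challenge in inducible HEK293 T-REx D2 cells preexposed to test compound for 180 s.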
row,SMILES,inhibition
1,Cc1cccc(Cc2c(C)nc3nc(SCC(=O)NCc4ccc(F)cc4)nn3c2C)c1,4.81%
2,CN(C)/C=N/c1cc(=O)[nH]c(=O)n1Cc1ccccc1,active: 40.1%
3,COC(=O)c1c(NC(=O)c2nc(SC)ncc2Cl)sc2c1CCCC2,10.7%
4,CC(=O)c1cc(-c2ccccc2)n(CCC(=O)NCCc2ccccc2)c1C,-7.01%
5,CC(=O)NCc1nc2cccnc2n1Cc1ccccc1,-2.69%
6,Cc1ccc(Cc2nc3ccccc3nc2SCC(=O)NCCc2ccccc2)cc1,-8.3%
7,Cc1nc2c(-c3ccc(F)cc3)c(C)nn2c(C)c1CCC(=O)N1CCN(c2ccc(F)cc2)CC1,-5.7%
8,Cc1cccc(CCNC(=O)c2ccc3c(c2)nc2n3CCCCC2)c1,20.6%
9,Cc1oc(-c2cccc(Cl)c2)nc1CSc1nnc(C)n2c1cc1occc12,0.442%
10,CCN1C(=O)c2ccccc2Sc2ccc(NC(=O)Cc3ccc(OC)cc3)cc21,26.3%
11,CCOc1ccc(NCc2cccn2-c2nnc(N3CCC(C(=O)NCc4cccc(OC)c4)CC3)s2)cc1,6.27%
12,CC(C)CC(=O)Nc1nnc2n1CCS2,20.2%
13,CCCn1cc(S(=O)(=O)c2cc(C)ccc2C)c(=O)c2cc(F)c(N3CCCCCC3)cc21,6.68%
14,COc1ccc(-n2nnc(C(=O)Nc3ccccc3F)c2N)cc1,-3.41%
15,COc1cccc(NC(=O)C(=O)NCCc2csc3nc(-c4ccccc4C)nn23)c1,-7.8%
16,CCc1ccccc1N(c1nc(-c2ccc(OC)c(OC)c2)no1)c1nc(-c2ccc(OC)c(OC)c2)no1,-0.716%
17,CC(C)(C)OC(=O)N1CCC(c2c(C(=O)NCc3ccccn3)cnn2-c2ccc(F)cc2)CC1,-5.24%
18,CC1CCCN(Cc2ccc(OCc3ccccc3)cc2)C1 (stereo not given),active: 46.3%
19,CCN(CC)CCSc1nnc2c3ccccc3n(Cc3ccccc3)c2n1,active: 60.3%
20,Cc1cc(C)c2c(=O)cc(C(=O)Nc3ccc(S(=O)(=O)Nc4onc(C)c4C)cc3)oc2c1,11.6%
21,COc1ccc2c(c1)c1c(c(=O)n(-c3cccc(C)c3)c(=O)n1CC(=O)N1CCCC1)n2C,7.43%
22,CCC(C)NC(=O)c1ccc2c(c1)N=C(C)c1cc(C)ccc1S2 (stereo not given),-0.608%
23,Cc1ccc2c(=O)cc(C(=O)Nc3c(C(=O)c4ccccc4)oc4ccccc34)oc2c1C,-2.48%
24,CN1C(=O)Cc2cc(S(=O)(=O)CCC(=O)N3CCN(c4cccc(Cl)c4)CC3)ccc21,-0.137%

row,SMILES,inhibition
1,CCc1ccc(NC(=O)c2c(C(=O)Nc3ccccc3)sc3nc(C)cc(=O)n23)cc1,-3.3%
2,COc1cccc(NS(=O)(=O)c2cc3c4c(c2)C(C)C(=O)N4CCC3)c1 (stereo not given),14%
3,COc1cc(-c2noc(C3CC(=O)N(c4cc(C)ccc4C)C3)n2)cc(OC)c1OC (stereo not given),15.9%
4,Cc1ccsc1CCN1C(=O)N(c2ccc(F)cc2)C(=O)C1CC(=O)Nc1ccccc1 (stereo not given),8.44%
5,COc1cccc(-c2cc(C(=O)N3CCN(c4ccc(F)cc4)CC3)no2)c1,-0.335%
6,COC(=O)CC(NS(=O)(=O)c1cccs1)c1cccc2ccccc12 (stereo not given),active: 45.9%
7,CCc1ccc(NC(=O)C2CCCN(S(=O)(=O)c3cccc4nonc34)C2)cc1 (stereo not given),13.3%
8,Cc1cc(C)c(NS(=O)(=O)c2cc(-c3cnc(C4CC4)o3)ccc2C)c(C)c1,5.31%
9,COc1ccc(CNC(=O)C2CCN(S(=O)(=O)c3ccc4nc5c(c(C(=O)O)c4c3)CC(C)CC5)CC2)cc1 (stereo not given),-11.5%
10,CCc1nn2c(=O)cc(COC(=O)C3CCCCC3)nc2s1,13%
11,COc1cccc(NC(=O)c2nnn(Cc3ccc(OC)c(Br)c3)c2N)c1,-21.3%
12,CCn1cc(C(=O)NCc2ccccc2OC)c(=O)c2cc(S(=O)(=O)N3CCCCCC3)ccc21,-0.757%
13,CCOC(=O)c1cc(-c2ccccc2)n(CCCC(=O)Nc2ccc(C)cc2Cl)c1C,-10%
14,CN(C(=O)c1ccc(COc2ccccc2Br)o1)c1ccccc1,active: 44.2%
15,COc1ccc(-c2nnc(SCC(=O)Nc3cccc(Cl)c3C)nc2-c2ccc(OC)cc2)cc1,-24.6%
16,COc1ccc(NC(=O)CCNS(=O)(=O)c2ccc3c(c2)CCN3C(=O)C2CC2)cc1Cl,-25.7%
17,Cc1cc(C)c(NC(=O)Cn2nnc(C(=O)Nc3ccc(F)cc3F)c2N)c(C)c1,5.98%
18,COc1ccc(-c2cc(OC(=O)c3cccc(C)c3)c3c(C)oc(C)c3c(=O)c2)cc1,11.1%
19,OCCC1CN(Cc2cccc(O)c2)CCN1CCc1ccccc1 (stereo not given),active: 54.8%
20,Cc1ccc(CNC(=O)c2ccc3c(c2)nc2n3CCCC2)cc1,8.92%
21,Cc1ccc(CNc2ncnc3c2cnn3-c2ccc(C)cc2C)cc1,16.1%
22,CC(=O)Nc1ccc(NC(=O)c2c(C)nn(-c3ccccc3)c2-n2cccc2)cc1,-1.79%
23,COC(=O)CN1C(=O)CSc2ccc(S(=O)(=O)Nc3c(C)cc(C)cc3C)cc21,0.401%
24,CCOC(=O)c1ccc(NC(=O)CSc2nc(-c3cccs3)cc(C(F)(F)F)c2C#N)cc1,-17.7%

row,SMILES,inhibition
1,CCS(=O)(=O)c1nc(S(=O)(=O)c2ccc(C)cc2)c(NCC(C)C)s1,-11.9%
2,CCOC(=O)N1CCc2c(sc(NCc3sccc3C)c2C(=O)Nc2cc(Cl)ccc2OC)C1,-5.43%
3,O=C1CN(C(=O)COc2ccc(Cl)cc2)C(c2ccc(F)cc2)c2cc(Br)ccc2N1 (stereo not given),10.7%
4,CC(=O)C1=C(c2ccc(Cl)c(Cl)c2)N(C(C)=O)n2cnnc2S1,-14.5%
5,Cc1ccc(NC(=O)N2CCN(Cc3nc4ccc(C)cc4o3)CC2)c(Cl)c1,-7.99%
6,CCS(=O)(=O)c1oc(-c2ccc(F)cc2)nc1S(=O)(=O)c1ccc(Br)cc1,-3.61%
7,CC(Nc1ccc(-c2nc(-c3ccco3)no2)cc1[N+](=O)[O-])c1ccccc1 (stereo not given),5.84%
8,Cc1onc(-c2c(Cl)cccc2Cl)c1C(=O)NCCCN1CCOCC1,active: 43.5%
9,CC(C)(C)C(=O)Nc1cccc(C(=O)OCc2cc(=O)n3nc(C4CC4)sc3n2)c1,-14.3%
10,COC(=O)[C@H](C)NC(=O)NC1CCN(Cc2ccccc2)CC1,active: 50.4%
11,Cc1ccccc1NC(=O)CCNC(=O)Cn1ccc2ccccc2c1=O,15.2%
12,CCOC(=O)c1ccc(NC(=O)CC2C(=O)N(c3ccc(C)cc3)C(=O)N2C2CCCC2)cc1 (stereo not given),1.43%
13,COc1cc(NC(=O)c2cc3ccc4cccnc4c3[nH]2)cc(OC)c1OC,-2.93%
14,COc1ccccc1N1CCN(S(=O)(=O)CCNC(=O)C2CC(=O)N(c3ccccc3)C2)CC1 (stereo not given),16.3%
15,CCOC(=O)c1c(C)[nH]c(C)c1S(=O)(=O)N1CCCC(C(=O)Nc2cccc(C)n2)C1 (stereo not given),-1.87%
16,CCOc1ccc(NC(=O)CSC2=Nc3ccccc3C3=NC(Cc4ccccc4)C(=O)N23)cc1 (stereo not given),3.77%
17,COc1ccc(-c2nc3sc(CCNC(=O)C(=O)Nc4ccc(C)c(F)c4)c(C)n3n2)cc1,-14.1%
18,CCCn1nc(NC(=O)c2cccc(Cl)c2)c2cc3cccc(C)c3nc21,-1.05%
19,CCc1ccc(S(=O)(=O)c2cn(C)c3cc(F)c(F)cc3c2=O)cc1,1.11%
20,COc1ccccc1CN1CCN(C2CCN(C(=O)Nc3ccccc3)CC2)C(=O)C1=O,-15.5%
21,Cc1ccc(NC(=O)Cn2c(-c3nonc3N)nc3ccccc32)cc1C,4.28%
22,CCOc1ccccc1Nc1nnc(-c2cc3cc(Cl)ccc3oc2=O)s1,-3.2%
23,O=C(CNC(=O)c1ccccc1F)OCc1cc(=O)n2nc(C3CC3)sc2n1,0.573%
24,COc1cc(OC)cc(C(=O)Nc2ccc3c(c2)OCCO3)c1,-13.9%

row,SMILES,inhibition
1,CCC(=O)N1CCc2cc(CNC(=O)c3ccc(C#N)cc3)ccc21,22.7%
2,CC(NC(=O)c1cc2ccccc2o1)c1ccccc1 (stereo not given),10.8%
3,CCOC(=O)c1cccc(NC(=O)CSc2nc3cc4ccccc4cc3[nH]2)c1,1.7%
4,CC(C)c1cnc2c(c1SCC(=O)O)c(=O)n(C)c(=O)n2C,4.78%
5,CCC(C(=O)NCc1cccc(Br)c1)n1nc(C)c2c(C)n(-c3ccccc3)nc2c1=O (stereo not given),-8.02%
6,O=S(=O)(Nc1cccc(F)c1)c1ccc2[nH]c3c(c2c1)CCCCC3,-0.921%
7,CC(=O)Nc1ccc(NC(=O)c2cnn(-c3ccccc3)c2C2CCN(C(=O)OC(C)(C)C)CC2)cc1,5.4%
8,COc1ccccc1CCNC(=O)C(=O)NCC(c1ccco1)S(=O)(=O)c1ccccc1 (stereo not given),-7.75%
9,CCOC(=O)c1c(C)[nH]c(C)c1S(=O)(=O)NCC1CCN(Cc2ccc(C)cc2)CC1,active: 86.5%
10,Cc1cccc(NC(=O)CSc2nc3ccccc3c3nc(CCc4c(C)n[nH]c4C)nn23)c1,23.9%
11,CC(CCc1ccc(O)cc1)N(C)CCc1ccccc1 (stereo not given),active: 90.7%
12,COc1ccc(Nc2nc3ccccc3nc2NS(=O)(=O)c2ccc(Cl)cc2)cc1OC,-0.036%
13,Cc1ccccc1OCc1nnc(SCc2cc(=O)c3ccc(C)c(C)c3[nH]2)n1C,7.13%
14,COc1ccccc1-c1nc(S(=O)(=O)c2ccccc2)c(N2CCC(C)CC2)o1,-17.4%
15,Cc1ccc(S(=O)(=O)NCCc2csc3nc(-c4ccccc4F)nn23)cc1C,0.49%
16,COC(=O)c1c(SCC(=O)Nc2cccc(Cl)c2C)[nH]c2ccccc2c1=O,3.78%
17,CN(C(=O)c1c2c(nc3ccccc13)C(=O)N(C1CCCCC1)C2)c1ccc(F)cc1,14.8%
18,COc1cccc(-c2nc(SCc3ccc(C)cc3)n3[nH]c(=O)cc3n2)c1,-5.63%
19,CC(C)(C)OC(=O)N1CCC(c2c(C(=O)N3CCC(c4ccccc4)C3)cnn2-c2ccc(Cl)cc2)CC1 (stereo not given),-4.47%
20,O=[N+]([O-])c1ccc(S(=O)(=O)N2CCn3cccc3C2c2ccccc2F)cc1 (stereo not given),-0.353%
21,CCOC(=O)c1c(C)oc2ncnc(N3CCN(c4ccccc4)CC3)c12,-4.7%
22,Cc1ccc(C)c(N2CCN(c3nc4ccc(Cl)cc4n4cnnc34)CC2)c1,6.98%
23,CCOC(=O)CC(NC(=O)c1cc2c(=O)n3cccc(C)c3nc2s1)c1ccc(OCC(C)C)c(OC)c1 (stereo not given),5.91%
